Measurements from patent US6348581.

Molecular target: tumor-associated glycoprotein TAG-72 (human)
Assay: Scatchard analysis, solid-phase assay on TAG-72-coated plates with 125I-labeled goat anti-human IgG probe; mean of 8 analyses

B1: humanized CC49 antibody CC49 HuVH/HuVK (antibody, human IgG1, V domains shown)
VH: [sequence of about 120 residues not given]
VL: DIQMTQSPSSLSASVGDRVTITCKSSQSLLYSGNQKNYLAWYQQTPGKAPKLLIYWASARESGVPSRFSGSGSGTDYTFTISSLQPEDIATYYCQQYYSYPLTFGQGTKLQIT
B1 was tested, and the Ka was 4.27e+09 M⁻¹.
